According to the GPR68 mutational scans of Howard et al. (2025):

B1: GPR68, Q15743 (parent)
chain: MGNITADNSSMSCTIDHTIHQTLAPVVYVTVLVVGFPANCLSLYFGYLQIKARNELGVYLCNLTVADLFYICSLPFWLQYVLQHDNWSHGDLSCQVCGILLYENIYISVGFLCCISVDRYLAVAHPFRFHQFRTLKAAVGVSVVIWAKELLTSIYFLMHEEVIEDENQHRVCFEHYPIQAWQRAINYYRFLVGFLFPICLLLASYQGILRAVRRSHGTQKSRKDQIQRLVLSTVVIFLACFLPYHVLLLVRSVWEASCDFAKGVFNAYHFSLLLTSFNCVADPVLYCFVSETTHRDLARLRGACLAFLTCSRTGRAREAYPLGAPEASGKSGAQGEEPELLTKLHPAFQTPNSPGSGGFPTGRLA

What was measured:
[1] = variants of: B1; experiment: cAMP reporter score (Enrich2 score, wild type = 0); higher = more signal; HEK293T, FACS bins
[2] = variants of: B1; experiment: surface expression score (Enrich2 score, wild type = 0); higher = more signal; HEK293T, FACS bins

Variant	cAMP reporter score ([1]; pH 5.5)	cAMP reporter score ([1]; pH 6)	cAMP reporter score ([1]; pH 6, modulator: ogerin)	cAMP reporter score ([1]; pH 6.5, modulator: ogerin)	surface expression score [2]
L249_V250insG	-1.1	-0.967	-1.92	-1.03	-2.35
V253del	0.753	-0.578	-0.118	-0.127	-0.341
D259_F260del	-1.12	-0.751	-1.29	-0.458	1.4
A256_C258del	-1.01	-1.08	-0.71	0.067	-1.86
A256_S257insGS	-0.754	-0.939	-1.32	-0.705	1.77
R251_S252insG	-0.418		-0.678		
D259del	-1.85	-0.773	-1.66	-0.632	-1.39
L249_V250del	-1.36	-0.315	-2	-1.19	-2.16
F260_A261insGS	-1.11	-2.17	-2.11	-1.11	-0.954
F260_A261del	-1.3	-1.13	-1.2	-1.24	-0.565
C258_D259insGS	-2.16	-1.4	-1.72	-0.714	0.251
C258_D259insG	-0.946	-0.921	-1.08	-0.679	1.49
D259_F260insG	-1.17	-1.28	-1.25	-1.51	0.665
L249_V250insGSG	-1.67	-1.16	-0.727	-0.887	-2.72
W254_E255del	-1.62	-1.32	-1.28	-1.12	-1.31
A261_G263del	-2.28	-1.65	-1.07	-1.72	-0.396
V250_R251insGS	-1.28	-1.61	-1.81	-0.889	-2.89
V250K	-1.05	-0.656	-1.2	-0.329	-2.44
V250P	-1.71	-1.22	-1.01	-0.096	-2.85
V250A	-0.496	-0.213	-0.606	-0.462	-0.459
V250D	-1.22	0.419	-0.163	-1.16	-0.63

Variant	cAMP reporter score ([1]; pH 5.5)	cAMP reporter score ([1]; pH 6)	cAMP reporter score ([1]; pH 6, modulator: ogerin)	cAMP reporter score ([1]; pH 6.5, modulator: ogerin)	surface expression score [2]
V250I	0.536	0.234	0.5	0.225	0.073
V250F	0.643	0.303	-0.074	-0.119	
V250E	-1.03	-1.75	-1.13	-0.871	-2.39
V250R	-2.04	-1.68	-2.06	-0.386	-3.35
V250H	-0.096		-0.607	-1.51	-2.47
V250Y	0.412		-0.003	-0.928	-0.079
V250G	-2.28	-0.837	-1.53	-1.09	-1.62
V250W	0.812	-0.444	-1.02	0.021	0.95
V250Q	-1.49	-1.26	-1.15	-0.862	-2.93
V250S	-0.656		0.219	-1.64	-0.595
V250T	1.45	0.095	1.49	1.07	0.443
V250L	-0.575	-1.5	-0.088	-0.928	0.338
V250M	0.314	-1.51	0.528	-0.84	-0.439
V250C	1.08		1.68	0.963	
V250N	-0.394		-2.13	-3.82	-2.71
L249V	-0.416	-1.17	-0.568	-0.867	-0.348
L249W	-1.6		0.492	-1.24	
L249Q	-1.21	-1.22	-2.08	-0.081	-1.58
L249H	-1.7	-0.472	-1.85	-1.68	-2
L249I	0.595	-0.632	0.644	0.217	-0.211
L249Y	0.618	-0.267	-0.389	0.041	-0.256

Variant	cAMP reporter score ([1]; pH 5.5)	cAMP reporter score ([1]; pH 6)	cAMP reporter score ([1]; pH 6, modulator: ogerin)	cAMP reporter score ([1]; pH 6.5, modulator: ogerin)	surface expression score [2]
L249S	-0.541	-0.756	-1.45	-1.48	-2.14
L249M	-0.259	0.447	-0.74	-0.717	-0.796
L249G	-0.107			-0.954	-1.57
L249R	-2.35	-1.67	-1.59	-1.28	-1.74
L249K	-1.65	-0.326	-1.04	-1.02	-2.35
L249N	-1.22			-1.31	-2.61
L249T	-1.46	0.601	-1.35	-0.445	-1
L249P	-1.72	-1.25	-1.31	-1.33	
E255_S257del	-1.61	-0.651	-2.04	-0.785	-1.72
A256E	0.801	1.91	1.29	2.6	1.21
A256G	0.795	1.52	0.343	0.791	1.65
A256Y	1.12	2.26	1.64	2.13	0.623
A256L	-0.831		0.6	0.747	-0.434
A256T	-0.226	-0.051	-0.206	0.564	-0.053
A256S	0.919	0.273	1.67	1.46	1.77
A256N	1.16	1.78	1.21	2.15	1.6
A256Q	0.185	0.945	1.41	1.55	0.247
A256H	0.495	1.57	0.606	1.9	0.584
A256I	0.242	-0.093	0.085	-0.429	-0.706
A256M	0.302	1.74	-0.68	1.27	0.214
A256K	0.358	2.46	1.13	2.09	1.29

Scores with a large standard error are left out. Two further conditions of the source, in which the scores hardly spread, are not listed. In variant names, del marks residues removed and ins residues inserted between the two positions. For part of these data: The concentration of ogerin is not given here.
